# Results taken from PubChem BioAssay AID1656 (Sanford-Burnham Center for Chemical Genomics, 2009).
# The list shows a part of the results. These are further read-outs of the screen, such as a control signal, another cell line or another target. No call is given for them. The list favours compounds with an active or inconclusive main result.
# Assay: oleate-induced lipid droplet accumulation in AML12 cells – imaging, high-throughput imaging, BODIPY stain, primary screen (AID 1656);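 also: cells counted across two imaged fields per well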
# Details: AML12 mouse hepatocytes, oleate lipid droplets, measured here: cell count, cytotoxicity flag, at 6.5 µM
# Outline: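 Material – mouse AML12 hepatocyte cell line, fixed after treatment · Compound dosing – one dose, 6.5 µM compound · Times – compound with oleate, overnight · Measured by – Image-based BODIPY and DAPI two-channel analysis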
row,SMILES,cell count [cells]
1,O=C1c2ccccc2C(=O)c2c(Nc3ccc(CCO)cc3)ccc(O)c21,835
2,O=C(Nc1ccccc1)C1=C[C@@H](C2CCCCC2)C[C@@H](OCc2ccc(CO)cc2)O1,738
3,CCc1c(C#N)c(SCCC(=O)Nc2cccc(OC)c2)nc2c1C(=O)CC(C)(C)C2,748
4,Cc1cc(NC(=O)c2cc3ccccc3o2)cc(C)c1OCC(=O)N1CCOCC1,678
5,O=C(OCCN1C(=O)c2cccc3c(N4CCOCC4)ccc(c23)C1=O)c1ccc(Cl)cc1Cl,242
6,CCOc1ccc(CCNC(=O)c2cc(C)nc3ccccc23)cc1OCC,671
7,CCN(CC)c1ccc(NC(=O)CN2CCN(S(=O)(=O)c3cc(Cl)ccc3OC)CC2)cc1,751
8,COc1ccc(C(=O)OC(C)C(=O)Nc2cc(C(F)(F)F)ccc2Cl)c(OC)c1OC (centres undefined),726
9,CCOc1ncccc1C(=O)OC(C)C(=O)Nc1ccc(CC)cc1 (centres undefined),684
10,CSc1ccc(NC(=O)N2CCC(C(=O)c3ccc(F)cc3)CC2)cc1,739
11,CCOc1ccc(CN(C)C(=O)CNC(=O)c2ccc3ccccc3c2)cc1OC,766
12,CCN1C(=O)/C(=C2\C=Cc3cc(C)ccc3N2CC)OC1=S,723
13,CCOc1ccc(CCNC(=O)c2c(C)nn(-c3ccccc3)c2Cl)cc1OCC,783
14,COc1ccc(Cl)cc1CNCCCSc1ncccn1,821
15,CCC1=Nc2cc(C(=O)NCc3ccco3)ccc2Sc2ccc(Cl)cc21,258
16,COc1ccc(C(=O)OC(C)C(=O)NC(C)CCc2ccccc2)cc1[N+](=O)[O-] (centres undefined),768
17,CCOc1ccc(CCNC(=O)C2CC=CCC2C(=O)OC(C)C)cc1OCC (centres undefined),836
18,Cc1[nH]c2ccccc2c1/C=N/Nc1ccccc1[N+](=O)[O-],700
19,O=C(COc1ccc(C(=O)c2ccccc2)cc1)NCc1ccc(F)cc1,197
20,COc1ccc(CCNC(=O)CCOc2cc(C)ccc2C)cc1OC,713
21,COCCN1C(=O)/C(=C/c2ccc(N3CCCC3)cc2C)SC1=S,687
22,Cc1ccccc1Cn1nc(C)c(NC(=O)C2c3ccccc3Oc3ccccc32)c1C,656
23,CCN1C(=O)c2ccccc2Sc2ccc(C(=O)NCCC(C)C)cc21,774
24,CCOc1cc2c(cc1OCC)C(c1ccccc1OC)OC(=O)C2 (centres undefined),653
25,CCCCN(CCCNC(=O)CN1C(=O)COc2ccccc21)c1ccccc1,672
26,CC1CCCCN1Cc1c(O)ccc2c(=O)c(-c3ccccc3)coc12 (centres undefined),378
27,COc1ccc(N=Nc2nc(-c3ccccc3)c(-c3ccccc3)[nH]2)cc1,622
28,CCc1ccccc1NC(=O)c1cccc(NC(=O)/C=C/c2ccco2)c1,300
29,CCCN1C(=O)/C(=C/c2c(N3CCNC(=O)C3CC(=O)OCC)nc3c(C)cccn3c2=O)SC1=S (centres undefined),698
